# Results as given in the supplement of paper PMC8728848.
# Some of the results follow.
# B1: LTL (Lotus tetragonolobus), P19664 (protein)
# chain: VSFNYTEFKDDGSLILQGDAKIWTDGRLAMPTDPLVNNPKTTRSAGRALYATPVPIWDSATGNVASFVTSFNFLFVIRELKYTPTDGLVFFLAPVGTEIPSGSTGGFLGIFDGSNGFNQFVAVEFDSYHNIWDPKSLRSSHVGIDVNSIMSLKAVNWNRVSGSLEKATIIYDSQTNILSVVMTSQNGQITTIYGTIDLKTVLPEKVSVGFSATTGNPEREKHDIYSWSFTSTLKEPEEQA
# Experiments:
# Experiment in all cases: glycan array binding signal (z-score within array); higher = stronger binding
# Details in all cases: glycan notation: IUPAC condensed, linker removed
# [1] = molecular target: Gal(b1-4)GlcNAc(b1-3)Gal(b1-4)GlcNAc(b1-2)Man(a1-3)[Gal(b1-4)GlcNAc(b1-3)Gal(b1-4)GlcNAc(b1-2)Man(a1-6)]Man(b1-4)GlcNAc(b1-4)[Fuc(a1-6)]GlcNAc
# How it was run: (§1)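 Columns mapping to the same glycan were averaged after glycan names were converted to IUPAC-condensed notation. The data come from 3228 arrays in the Consortium for Functional Glycomics database, limited to those with an available protein sequence. Binding is reported as a within-array Z-score averaged across arrays of one protein sequence and across linkers.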
# [2] = molecular target: Gal(b1-4)GlcNAc(b1-3)Gal(b1-4)GlcNAc(b1-2)[Gal(b1-4)GlcNAc(b1-3)Gal(b1-4)GlcNAc(b1-6)]Man(a1-6)[Gal(b1-4)GlcNAc(b1-3)Gal(b1-4)GlcNAc(b1-2)Man(a1-3)]Man(b1-4)GlcNAc(b1-4)GlcNAc
# How it was run: as §1
# [3] = molecular target: Gal(b1-4)GlcNAc(b1-3)Gal(b1-4)GlcNAc(b1-2)[Gal(b1-4)GlcNAc(b1-3)Gal(b1-4)GlcNAc(b1-6)]Man(a1-6)[Gal(b1-4)GlcNAc(b1-3)Gal(b1-4)GlcNAc(b1-2)Man(a1-3)]Man(b1-4)GlcNAc(b1-4)[Fuc(a1-6)]GlcNAc
# How it was run: as §1
# [4] = molecular target: Gal(b1-4)GlcNAc(b1-3)Gal(b1-4)GlcNAc(b1-3)Gal(b1-4)GlcNAc
# How it was run: as §1
# [5] = molecular target: Gal(b1-4)GlcNAc(b1-3)Gal(b1-4)GlcNAc(b1-3)Gal(b1-4)GlcNAc(b1-2)Man(a1-3)[Gal(b1-4)GlcNAc(b1-3)Gal(b1-4)GlcNAc(b1-3)Gal(b1-4)GlcNAc(b1-2)Man(a1-6)]Man(b1-4)GlcNAc(b1-4)GlcNAc
# How it was run: as §1
# [6] = molecular target: Gal(b1-4)GlcNAc(b1-3)Gal(b1-4)GlcNAc(b1-3)Gal(b1-4)GlcNAc(b1-2)Man(a1-3)[Gal(b1-4)GlcNAc(b1-3)Gal(b1-4)GlcNAc(b1-3)Gal(b1-4)GlcNAc(b1-2)Man(a1-6)]Man(b1-4)GlcNAc(b1-4)[Fuc(a1-6)]GlcNAc
# How it was run: as §1
# [7] = molecular target: Gal(b1-4)GlcNAc(b1-3)Gal(b1-4)GlcNAc(b1-3)Gal(b1-4)GlcNAc(b1-2)[Gal(b1-4)GlcNAc(b1-3)Gal(b1-4)GlcNAc(b1-3)Gal(b1-4)GlcNAc(b1-6)]Man(a1-6)[Gal(b1-4)GlcNAc(b1-3)Gal(b1-4)GlcNAc(b1-3)Gal(b1-4)GlcNAc(b1-2)Man(a1-3)]Man(b1-4)GlcNAc(b1-4)[Fuc(a1-6)]GlcNAc
# How it was run: as §1
# [8] = molecular target: Gal(b1-4)GlcNAc(b1-3)Gal(b1-4)GlcNAc(b1-3)Gal(b1-4)GlcNAc(b1-3)Gal(b1-4)GlcNAc(b1-2)Man(a1-3)[Gal(b1-4)GlcNAc(b1-3)Gal(b1-4)GlcNAc(b1-3)Gal(b1-4)GlcNAc(b1-3)Gal(b1-4)GlcNAc(b1-2)Man(a1-6)]Man(b1-4)GlcNAc(b1-4)GlcNAc
# How it was run: as §1
# [9] = molecular target: Gal(b1-4)GlcNAc(b1-3)Gal(b1-4)GlcNAc(b1-3)Gal(b1-4)GlcNAc(b1-3)Gal(b1-4)GlcNAc(b1-2)Man(a1-3)[Gal(b1-4)GlcNAc(b1-3)Gal(b1-4)GlcNAc(b1-3)Gal(b1-4)GlcNAc(b1-3)Gal(b1-4)GlcNAc(b1-2)Man(a1-6)]Man(b1-4)GlcNAc(b1-4)[Fuc(a1-6)]GlcNAc
# How it was run: as §1
# [10] = molecular target: Gal(b1-4)GlcNAc(b1-3)Gal(b1-4)GlcNAc(b1-3)Gal(b1-4)GlcNAc(b1-3)Gal(b1-4)GlcNAc(b1-2)[Gal(b1-4)GlcNAc(b1-3)Gal(b1-4)GlcNAc(b1-3)Gal(b1-4)GlcNAc(b1-3)Gal(b1-4)GlcNAc(b1-6)]Man(a1-6)[Gal(b1-4)GlcNAc(b1-3)Gal(b1-4)GlcNAc(b1-3)Gal(b1-4)GlcNAc(b1-3)Gal(b1-4)GlcNAc(b1-2)Man(a1-3)]Man(b1-4)GlcNAc(b1-4)[Fuc(a1-6)]GlcNAc
# How it was run: as §1
# [11] = molecular target: Gal(b1-4)GlcNAc(b1-3)Gal(b1-4)GlcNAc(b1-3)Gal(b1-4)GlcNAc(b1-3)Gal(b1-4)GlcNAc(b1-3)Gal(b1-4)GlcNAc(b1-2)Man(a1-3)[Gal(b1-4)GlcNAc(b1-3)Gal(b1-4)GlcNAc(b1-3)Gal(b1-4)GlcNAc(b1-3)Gal(b1-4)GlcNAc(b1-3)Gal(b1-4)GlcNAc(b1-2)Man(a1-6)]Man(b1-4)GlcNAc(b1-4)GlcNAc
# How it was run: as §1
# [12] = molecular target: Gal(b1-4)GlcNAc(b1-3)Gal(b1-4)GlcNAc(b1-3)Gal(b1-4)GlcNAc(b1-3)Gal(b1-4)GlcNAc(b1-3)Gal(b1-4)GlcNAc(b1-2)Man(a1-3)[Gal(b1-4)GlcNAc(b1-3)Gal(b1-4)GlcNAc(b1-3)Gal(b1-4)GlcNAc(b1-3)Gal(b1-4)GlcNAc(b1-3)Gal(b1-4)GlcNAc(b1-2)Man(a1-6)]Man(b1-4)GlcNAc(b1-4)[Fuc(a1-6)]GlcNAc
# How it was run: as §1
# [13] = molecular target: Gal(b1-4)GlcNAc(b1-3)Gal(b1-4)GlcNAc(b1-3)Gal(b1-4)GlcNAc(b1-3)Gal(b1-4)GlcNAc(b1-3)Gal(b1-4)GlcNAc(b1-2)[Gal(b1-4)GlcNAc(b1-3)Gal(b1-4)GlcNAc(b1-3)Gal(b1-4)GlcNAc(b1-3)Gal(b1-4)GlcNAc(b1-3)Gal(b1-4)GlcNAc(b1-6)]Man(a1-6)[Gal(b1-4)GlcNAc(b1-3)Gal(b1-4)GlcNAc(b1-3)Gal(b1-4)GlcNAc(b1-3)Gal(b1-4)GlcNAc(b1-3)Gal(b1-4)GlcNAc(b1-2)Man(a1-3)]Man(b1-4)GlcNAc(b1-4)[Fuc(a1-6)]GlcNAc
# How it was run: as §1
# [14] = molecular target: Gal(b1-4)GlcNAc(b1-3)Gal(b1-4)GlcNAc(b1-3)Gal(b1-4)GlcNAc(b1-3)Gal(b1-4)GlcNAc(b1-3)Gal(b1-4)GlcNAc(b1-3)Gal(b1-4)GlcNAc(b1-2)Man(a1-3)[Gal(b1-4)GlcNAc(b1-3)Gal(b1-4)GlcNAc(b1-3)Gal(b1-4)GlcNAc(b1-3)Gal(b1-4)GlcNAc(b1-3)Gal(b1-4)GlcNAc(b1-3)Gal(b1-4)GlcNAc(b1-2)Man(a1-6)]Man(b1-4)GlcNAc(b1-4)GlcNAc
# How it was run: as §1
# [15] = molecular target: Gal(b1-4)GlcNAc(b1-3)Gal(b1-4)GlcNAc(b1-3)GalNAc
# How it was run: as §1
# [16] = molecular target: Gal(b1-4)GlcNAc(b1-3)Gal(b1-4)GlcNAc(b1-3)[Gal(b1-4)GlcNAc(b1-3)Gal(b1-4)GlcNAc(b1-6)]GalNAc
# How it was run: as §1
# [17] = molecular target: Gal(b1-4)GlcNAc(b1-3)Gal(b1-4)GlcNAc(b1-6)[Gal(b1-3)]GalNAc
# How it was run: as §1
# [18] = molecular target: Gal(b1-4)GlcNAc(b1-3)Gal(b1-4)[Fuc(a1-3)]GlcNAc(b1-3)Gal(b1-4)[Fuc(a1-3)]GlcNAc
# How it was run: as §1
# [19] = molecular target: Gal(b1-4)GlcNAc(b1-3)GalNAc
# How it was run: as §1
# [20] = molecular target: Gal(b1-4)GlcNAc(b1-3)[Fuc(a1-3)GlcNAc(b1-6)]Gal(b1-4)Glc
# How it was run: as §1
# [21] = molecular target: Gal(b1-4)GlcNAc(b1-3)[Gal(b1-4)GlcNAc(b1-6)]Gal(b1-4)GlcNAc
# How it was run: as §1
# [22] = molecular target: Gal(b1-4)GlcNAc(b1-3)[Gal(b1-4)GlcNAc(b1-6)]GalNAc
# How it was run: as §1
# [23] = molecular target: Gal(b1-4)GlcNAc(b1-3)[GlcNAc(b1-6)]Gal(b1-4)GlcNAc
# How it was run: as §1
# [24] = molecular target: Gal(b1-4)GlcNAc(b1-6)Gal(b1-4)GlcNAc
# How it was run: as §1
# [25] = molecular target: Gal(b1-4)GlcNAc(b1-6)Gal(b1-4)GlcNAc(b1-6)GalNAc
# How it was run: as §1
# [26] = molecular target: Gal(b1-4)GlcNAc(b1-6)GalNAc
# How it was run: as §1
# [27] = molecular target: Gal(b1-4)GlcNAc(b1-6)[Gal(b1-3)]GalNAc
# How it was run: as §1
# [28] = molecular target: Gal(b1-4)GlcNAc(b1-6)[Gal(b1-3)]GlcNAc
# How it was run: as §1
# [29] = molecular target: Gal(b1-4)GlcNAc(b1-6)[Gal(b1-4)GlcNAc(b1-3)]GalNAc
# How it was run: as §1
# Gal(b1-4)GlcNAc6P = molecular target: Gal(b1-4)GlcNAc6P
# How it was run: as §1
# Gal(b1-6)Gal = molecular target: Gal(b1-6)Gal
# How it was run: as §1
# Gal3S(b1-3)GalNAc = molecular target: Gal3S(b1-3)GalNAc
# How it was run: as §1
# Gal3S(b1-3)GlcNAc = molecular target: Gal3S(b1-3)GlcNAc
# How it was run: as §1
# [30] = molecular target: Gal3S(b1-3)[Fuc(a1-4)]GlcNAc
# How it was run: as §1
# Gal3S(b1-4)Glc = molecular target: Gal3S(b1-4)Glc
# How it was run: as §1
# Gal3S(b1-4)Glc6S = molecular target: Gal3S(b1-4)Glc6S
# How it was run: as §1
# Gal3S(b1-4)GlcNAc = molecular target: Gal3S(b1-4)GlcNAc
# How it was run: as §1
# Gal3S(b1-4)GlcNAc6S = molecular target: Gal3S(b1-4)GlcNAc6S
# How it was run: as §1
binder,measurement,setting,value
B1,glycan array binding signal (z-score),[1],0.588
same,glycan array binding signal (z-score),[2],-0.094
same,glycan array binding signal (z-score),[3],0.129
same,glycan array binding signal (z-score),[4],-0.226
same,glycan array binding signal (z-score),[5],3.1
same,glycan array binding signal (z-score),[6],0.526
same,glycan array binding signal (z-score),[7],0.388
same,glycan array binding signal (z-score),[8],0.014
same,glycan array binding signal (z-score),[9],0.525
same,glycan array binding signal (z-score),[10],-0.187
same,glycan array binding signal (z-score),[11],-0.131
same,glycan array binding signal (z-score),[12],-0.233
same,glycan array binding signal (z-score),[13],0.195
same,glycan array binding signal (z-score),[14],-0.093
same,glycan array binding signal (z-score),[15],2.04
same,glycan array binding signal (z-score),[16],2.93
same,glycan array binding signal (z-score),[17],1.81
same,glycan array binding signal (z-score),[18],-0.19
same,glycan array binding signal (z-score),[19],-0.066
same,glycan array binding signal (z-score),[20],0.503
same,glycan array binding signal (z-score),[21],-0.166
same,glycan array binding signal (z-score),[22],-0.135
same,glycan array binding signal (z-score),[23],-0.213
same,glycan array binding signal (z-score),[24],-0.037
same,glycan array binding signal (z-score),[25],-0.316
same,glycan array binding signal (z-score),[26],-0.113
same,glycan array binding signal (z-score),[27],0.031
same,glycan array binding signal (z-score),[28],-0.544
same,glycan array binding signal (z-score),[29],-0.202
same,glycan array binding signal (z-score),Gal(b1-4)GlcNAc6P,0.005
same,glycan array binding signal (z-score),Gal(b1-6)Gal,-0.216
same,glycan array binding signal (z-score),Gal3S(b1-3)GalNAc,-0.003
same,glycan array binding signal (z-score),Gal3S(b1-3)GlcNAc,-0.263
same,glycan array binding signal (z-score),[30],-0.057
same,glycan array binding signal (z-score),Gal3S(b1-4)Glc,-0.155
same,glycan array binding signal (z-score),Gal3S(b1-4)Glc6S,0.003
same,glycan array binding signal (z-score),Gal3S(b1-4)GlcNAc,-0.248
same,glycan array binding signal (z-score),Gal3S(b1-4)GlcNAc6S,0.673
